Screen size: about 48,000 compounds; about 550 (1.1%) were called active. About 4% were inconclusive and are not listed. No stated cut-off is given here; in the data, active means potency below about 15 µM; inconclusive means mostly about 16 µM to 33 µM; inactive means weaker than that. The list shows a part of the results.
target: Lysosomal acid glucosylceramidase (Homo sapiens) (UniProt P04062); experiment: Glucocerebrosidase; details: purified enzyme, resorufin glucoside fluorescence (screen aimed at inhibitors), 20 min;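 further: the screen sought inhibitors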
Sequence of UniProt P04062 (P04062 whole entry, looked up): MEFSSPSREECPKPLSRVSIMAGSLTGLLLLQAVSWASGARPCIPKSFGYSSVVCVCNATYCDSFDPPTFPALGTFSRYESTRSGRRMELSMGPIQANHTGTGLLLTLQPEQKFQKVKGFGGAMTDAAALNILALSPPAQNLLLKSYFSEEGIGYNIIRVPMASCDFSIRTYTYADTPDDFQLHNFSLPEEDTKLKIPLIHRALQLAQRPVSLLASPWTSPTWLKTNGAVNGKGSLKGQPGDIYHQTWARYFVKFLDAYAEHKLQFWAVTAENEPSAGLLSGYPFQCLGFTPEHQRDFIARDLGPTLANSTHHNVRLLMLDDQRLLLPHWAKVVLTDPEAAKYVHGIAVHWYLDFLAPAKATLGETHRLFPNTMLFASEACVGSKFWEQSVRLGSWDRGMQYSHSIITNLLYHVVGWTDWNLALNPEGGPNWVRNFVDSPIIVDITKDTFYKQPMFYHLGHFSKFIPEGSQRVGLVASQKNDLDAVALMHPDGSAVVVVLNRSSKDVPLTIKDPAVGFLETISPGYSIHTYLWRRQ
How it was run: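 Wild-type enzyme at 0.2 nM final in 50mM citric acid/KH2PO4, 10mM sodium taurocholate, 0.01% tween-20, pH 5.9, with resorufin beta-D-glucopyranoside at 30 uM final. Compounds titrated, 20 min at RT, red fluorescence read; AC50 from titration.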
Potency means the concentration at half of the fitted maximal effect.

SMILES | Potency
CCOC(=O)CNC(=O)c1cn(CC(C)C)c(=O)c2cc(OC)c(OC)cc12 | inactive: > 76.9 µM
O=C(c1cccnc1)N(Cc1ccccc1)c1ccccc1 | inactive: > 76.9 µM
O=S(=O)(NCc1ccc(F)cc1)c1ccc2c(c1)OCCO2 | inactive: > 76.9 µM
CCCCn1c(NC(C)=O)c(C#N)c2nc3ccccc3nc21 | inactive: > 76.9 µM
CCN(CC)CCCN1C(=O)C(O)=C(C(C)=O)C1c1cccc(OC)c1 (centres undefined) | inactive: > 76.9 µM
CN(CC(=O)NCc1cccs1)S(=O)(=O)c1cccc2nsnc12 | inactive: > 76.9 µM
Cc1ccc(NS(=O)(=O)c2cn(C)cn2)cc1 | inactive: > 76.9 µM
Cc1cccc2nc(C(F)(F)F)nc(=O)n12 | inactive: > 76.9 µM
COc1ccccc1NC(=O)CN(Cc1ccco1)C(=O)c1cccs1 | inactive: > 76.9 µM
Cn1nc(CC(=O)Nc2ccc3c(c2)CCC3)c2ccccc2c1=O | inactive: > 76.9 µM
CCCN(CCC(=O)Nc1cc(OC)cc(OC)c1)CC1CC1 | inactive: > 76.9 µM
N#Cc1nc(Cc2cccc3ccccc23)oc1NCc1ccco1 | inactive: > 76.9 µM
CCOC(=O)c1ccc(NC(=O)COc2ccc(S(=O)(=O)NC(C)C)cc2)cc1 | inactive: > 76.9 µM
O=S(=O)(c1cccc(-c2cn3cc(Cl)ccc3n2)c1)N1CCOCC1 | inactive: > 76.9 µM
COn1cnnc1-c1ccccc1 | inactive: > 76.9 µM
CN(CC(=O)NCCN1CCCCCC1)S(=O)(=O)c1cccc2nsnc12 | inactive: > 76.9 µM
CC1(C)Cc2cccc(OCC(=O)Nc3nccs3)c2O1 | inactive: > 76.9 µM
O=c1[nH]cnc2nn(-c3ccccc3)nc12 | inactive: > 76.9 µM
COc1cc(OC)c(C2N(c3ccc(Cl)c(Cl)c3)C(=O)C3CCCN32)cc1OC (centres undefined) | inactive: > 76.9 µM
CCCCn1c2nc3ccccc3nc2c2c(=O)n(CCC)cnc21 | active: 5 µM

SMILES | Potency
CC(C(=O)Nc1sccc1C(N)=O)N1C(=O)C2CC=CCC2C1=O (centres undefined) | inactive: > 76.9 µM
CCOc1ccc(CCNC(=O)C2CCCN(S(=O)(=O)c3c(C)n[nH]c3C)C2)cc1OCC (centres undefined) | inactive: > 76.9 µM
Cc1ccc(-n2c(=O)c3sccc3n(CC(=O)N3CCCC3)c2=O)cc1 | inactive: > 76.9 µM
CN1CCN(C(=O)c2cc3c(n(-c4ccccc4)c2=O)CC(C)(C)CC3=O)CC1 | inactive: > 76.9 µM
COc1cc(NC(=O)c2ccc3c(c2)OCO3)ccc1NC(=O)C(C)C | inactive: > 76.9 µM
CC(C)[C@H](NC(=O)NCCc1ccc(F)cc1)C(=O)O | inactive: > 76.9 µM
Brc1ccccc1-c1nnc2sc(Cc3ccccc3)nn12 | inactive: > 76.9 µM
CC(C)CC(=O)Nc1cccc(-c2nc3ccccc3o2)c1 | inactive: > 76.9 µM
Oc1ccccc1N=Cc1ccc[nH]1 | inactive: > 76.9 µM
CCN(CC)c1nc2ccccc2n2cnnc12 | inactive: > 76.9 µM
CCOC(=O)C1CCCN(C(=O)c2cc(Cl)ccc2Cl)C1 (centres undefined) | inactive: > 76.9 µM
CCOC(=O)CCP(=O)(O)C(O)c1ccc(OC)cc1 (centres undefined) | inactive: > 76.9 µM
CN(Cc1ccccc1)C(=O)CCNC(=O)Cn1cnc2ccccc2c1=O | inactive: > 76.9 µM
COc1ccc(N2C(=O)CCC(C(=O)N3CCC(C(N)=O)CC3)C2c2ccc(F)cc2)cc1 (centres undefined) | inactive: > 76.9 µM
COCC(=O)Nc1nc(-c2ccccc2)c(C)s1 | inactive: > 76.9 µM
CCOC(=O)CSc1nnc(CNC(=O)c2ccc(OC)c(OC)c2)n1C | inactive: > 76.9 µM
COc1ccccc1C(OC(=O)c1cccs1)C(=O)NCc1ccco1 (centres undefined) | inactive: > 76.9 µM
O=C(NCc1ccc(F)cc1)c1cc(S(=O)(=O)N2CCOCC2)ccc1F | inactive: > 76.9 µM
O=c1cc(-c2ccccc2)[nH]c2nc3ccccc3n12 | inactive: > 76.9 µM
CC(C)CC(NC(=O)C1CCC(C)CC1)C(=O)Nc1ccccn1 (centres undefined) | inactive: > 76.9 µM

SMILES | Potency
Cc1cc(C(F)(F)F)nc(Nc2nc(C)c3ccccc3n2)n1 | inactive: > 76.9 µM
COCCn1c(SCC(=O)c2ccc3c(c2)OCCO3)nnc1-c1ccco1 | inactive: > 76.9 µM
CCOC(=O)N1CCN(c2nc(-c3ccc(OC)cc3)no2)CC1 | inactive: > 76.9 µM
c1cnc2c(SCc3ccc(-c4nnco4)cc3)cccc2c1 | inactive: > 76.9 µM
O=S(=O)(c1ccc(S(=O)(=O)N2CCCC3(CCCCC3)C2)cc1)N1CCCCC1 | inactive: > 76.9 µM
COc1ccc(C(CNC(=O)COc2ccccc2C#N)N2CCOCC2)cc1 (centres undefined) | inactive: > 76.9 µM
COc1ccc(NC(=O)c2ccco2)cc1NC(=O)c1ccc(C)cc1 | inactive: > 76.9 µM
Cc1ccc(C)c(NC(=O)CS(=O)(=O)c2c[nH]c3ccccc23)c1 | inactive
COc1ccccc1N1CCN(CCCNC(=O)Nc2ccccc2C)CC1 | inactive: > 76.9 µM
Cc1ccc2c(c1)C(N1CCCC1=O)CC(c1ccco1)N2 (centres undefined) | inactive: > 76.9 µM
CCOC(=O)c1ccc(N2C(=O)c3n[nH]c(C)c3C2c2ccccc2)cc1 (centres undefined) | inactive: > 76.9 µM
Cc1cc(NC(=O)CCC(=O)N(CCC(C)C)C(C(=O)NC2CCCC2)c2cccnc2)no1 (centres undefined) | inactive: > 76.9 µM
COCCSc1ccccc1C(=O)Nc1cc(C)on1 | inactive: > 76.9 µM
Cc1ccc2cc3cc(C(=O)N4CC(C)CC(C)C4)oc3nc2c1 (centres undefined) | inactive: > 76.9 µM
CC(=O)Nc1c(C(=O)N2CCOCC2)sc2nc3c(cc12)COC(C)(C)C3 | inactive: > 76.9 µM
CCOC(=O)Cn1cc(C(=O)c2cccs2)c2ccccc21 | inactive: > 76.9 µM
CS(=O)(=O)C1=C(O)C(=O)N(CCCC(=O)O)C1c1ccccc1F (centres undefined) | inactive: > 76.9 µM
O=C1CSC(c2ccccc2F)N1CCN1CCCCC1 (centres undefined) | inactive: > 76.9 µM
COc1cccc(C2CC(C(F)(F)F)n3nc(C(=O)NCc4cccnc4)cc3N2)c1 (centres undefined) | inactive: > 76.9 µM
